The BET-seq Pho4 binding data (Le et al. 2018)
The list shows a part of the results. The energies were worked out here from pooled read counts, against the library average; single values are noisy.

Target: T1, Pho4 (S. cerevisiae) (UniProt P07270)
T1 sequence: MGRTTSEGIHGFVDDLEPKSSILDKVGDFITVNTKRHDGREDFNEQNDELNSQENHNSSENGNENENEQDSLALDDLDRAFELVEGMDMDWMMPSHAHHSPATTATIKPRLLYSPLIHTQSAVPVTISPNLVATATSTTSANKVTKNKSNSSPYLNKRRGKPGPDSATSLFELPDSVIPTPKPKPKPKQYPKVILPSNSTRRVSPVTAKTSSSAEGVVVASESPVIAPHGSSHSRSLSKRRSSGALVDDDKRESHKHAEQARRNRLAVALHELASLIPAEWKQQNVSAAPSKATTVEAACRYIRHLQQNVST
Experiment: relative binding free energy (BET-seq); higher = weaker binding
Conditions: reference: library average

Sequence	relative binding free energy [kcal/mol]
TGGTACACGTGGGTGA	-0.09
CAGTTCACGTGTCGGG	0.2
CATTTCACGTGTTTGT	0.28
CGGAGCACGTGTAGGT	0.03
TTTAACACGTGCTTAT	-0.07
TTAAACACGTGGGATT	-0.18
TGCTACACGTGGTTTA	0.07
GTTAGCACGTGGGTCC	-0.12
GTATCCACGTGGTGTG	0.04
GGTACCACGTGGGGTC	-0.19
ACAGTCACGTGTGGGC	0.07
TGATGCACGTGAGCTT	0.17
TCGTACACGTGTTTTA	0.13
GTGGGCACGTGGGTTT	-0.11
GATATCACGTGATAAG	0.42
AGCGTCACGTGTAGGA	-0.05
TATGGCACGTGAGACG	0.07
GTAAGCACGTGTATGG	0.06
GTTAGCACGTGGGTAG	-0.11
GGCGACACGTGAGGGC	0.29
CGAATCACGTGGGGGC	0.05
TTCTTCACGTGTTGTC	0.29
TTGATCACGTGCGGTT	0.21
TGGGTCACGTGCTGTA	0.08
AGCGGCACGTGAGGTC	0.13

Sequence	relative binding free energy [kcal/mol]
TCTGTCACGTGAGGAG	0.2
TTAGTCACGTGTGAGT	0.23
CGAGTCACGTGTGTTG	-0.02
CTTTGCACGTGTCGTG	-0.05
CTATGCACGTGGGTTG	-0.2
CGTACCACGTGTGGTG	-0.04
AGGGTCACGTGTTTCG	0.18
TAAGGCACGTGGACGT	-0.11
CTGAACACGTGATTGG	0.24
GTATGCACGTGGCTGC	0.04
CGTTGCACGTGTCGGG	-0.08
CGGAACACGTGGGGTT	-0.14
TCGATCACGTGGGGGA	-0.13
TGAGGCACGTGGGCCT	-0.14
TTGGGCACGTGCAGGC	-0.18
AGTGTCACGTGCTCGT	-0.04
TGAGACACGTGGATTT	0.16
TCGGGCACGTGGATAT	-0.08
AATTGCACGTGGTCGG	-0.09
GTCAACACGTGTGTAT	0.12
GGATTCACGTGTTACG	0.38
GGACTCACGTGGTTTG	0.2
TGATACACGTGGCGGT	0.11
CATATCACGTGTTAGT	0.04
ATGTTCACGTGAGGCT	0.33

Sequence	relative binding free energy [kcal/mol]
CGTATCACGTGTTAAG	0.14
TATGACACGTGTTGTA	-0.03
GGGGCCACGTGTGTGG	0.05
AAGCTCACGTGGGTTG	0.06
AATGACACGTGGTGTT	-0.13
CTTAGCACGTGTTGGT	-0.01
AATGACACGTGATAGG	0.12
GGATACACGTGGGCCG	0.02
ATATGCACGTGTTATT	-0.05
GGTTTCACGTGTCGGG	0.36
AGTAGCACGTGCGTTT	-0.21
CCGTTCACGTGTTTGT	0.12
TTCATCACGTGGAGGA	0.31
GGTTACACGTGGTGCA	0.08
GATTGCACGTGCGCGG	-0.08
GGTTGCACGTGATTTC	0.28
TGCGTCACGTGAGGTC	0.22
TTGGGCACGTGCGGGT	-0.07
TCTAGCACGTGAATGG	0.31
TATTCCACGTGAGTTG	0.33
GTTTTCACGTGTATTG	0.27
TAGAGCACGTGCTTGG	-0.16
TAGGTCACGTGTAAAA	0.11
ACGTTCACGTGTGGTT	0.29
AGAGGCACGTGGATTA	-0.05

Sequence	relative binding free energy [kcal/mol]
TTTGTCACGTGGAGGG	0.11
ATACACACGTGATGGT	0.17
GGGTTCACGTGTGACG	0.27
GTATTCACGTGCTGTA	0.18
ATTACCACGTGGGTGT	-0.18
GTGAGCACGTGCAGTA	-0.02
GTTGCCACGTGGTGTC	0.02
CTGGTCACGTGAGGCG	0.07
GGGGACACGTGGTTTT	0.1
GTTACCACGTGTGGGA	-0.07
TGGTGCACGTGACTAT	0.02
TGGTTCACGTGGCTGA	0.24
GACTTCACGTGTTAGT	0.2
TAATGCACGTGATTAT	-0.06
GGGTTCACGTGATGTA	0.28
GGAAACACGTGTTGTT	0.03
TCTTCCACGTGGTAGG	0.09
GTCTGCACGTGGGGTA	-0.07
GGCGGCACGTGTGTGG	0.07
ATTGACACGTGTGTCT	0.1
CATGGCACGTGATGTT	0.11
CGTCGCACGTGGGTGT	-0.15
GAAGTCACGTGCTGGG	0.07
ATGGGCACGTGCATGG	-0.14
TTTTTCACGTGTACAG	0.24

Sequence	relative binding free energy [kcal/mol]
TGGCACACGTGTGTTG	-0.02
GCGTGCACGTGGGAAT	-0.14
TGTAGCACGTGGGCCG	-0.25
TAGTTCACGTGTTTGG	0.25
TCATTCACGTGGCGGT	0.19
CGTTGCACGTGTTTGA	-0.02
ATGCGCACGTGGTAGT	-0.14
GGCGCCACGTGGGACG	0.02
AGCTTCACGTGTTGGA	0.25
AAGCACACGTGTGTGT	0.15
TTAAGCACGTGGGTAC	-0.21
CGGGGCACGTGGAGAG	0
AGAAGCACGTGAGGAT	0.33
GTGCCCACGTGAGGGG	-0.07
TTTTGCACGTGGAAGC	-0.06
AACGTCACGTGTGTGC	0.15
ACTGACACGTGTGATG	0.11
ATTATCACGTGGCAAG	0.13
GTTAACACGTGGTGGT	-0.02
CAGAACACGTGTTGGG	0.05
ATAAACACGTGTTTTT	0.1
AGGGGCACGTGATAGT	0.06
ATAGACACGTGTTGTT	-0.13
GATTGCACGTGGATTG	0.14
GCAGGCACGTGGGCGT	-0.3

Sequence	relative binding free energy [kcal/mol]
GTCGTCACGTGGGTGA	-0.1
ATTTTCACGTGGGAAA	0.12
TTTCGCACGTGTTTAT	0.03
TTGGTCACGTGTAGAT	0.39
CGGGCCACGTGTGGAG	-0.08
TTCGGCACGTGGCGTG	-0.22
TATTGCACGTGATAAA	0.07
AAGAGCACGTGTAGGA	-0.2
AGATACACGTGAGGCT	0.3
AGATGCACGTGTGTCG	-0.06
TTGATCACGTGTAGAA	0.22
TAACTCACGTGAGTGT	0.4
AGGAGCACGTGTGGCC	0.02
ATATGCACGTGGGGTA	-0.37
TGAGTCACGTGGGAAT	0.12
CGGGTCACGTGTGGTT	0.17
AGGTACACGTGTATAG	0.05
GTCTGCACGTGTGCGT	-0.01
GGTCGCACGTGCGGTG	-0.07
GAGGGCACGTGGGCTG	-0.27
TTACTCACGTGGTGGA	0.14
